# PubChem BioAssay AID1460 (National Center for Advancing Translational Sciences (NCATS), 2008)
# The campaign covered roughly 270,000 compounds. About 5,800 (2.1%) were called active. This list was built around the results that the source calls inconclusive (neither active nor inactive); the mix of calls is not that of the screen. Calls follow the shape of the dose curve; as a rule, active = well fitted inhibition curve with a large enough effect; inconclusive = small, poorly fitted or top-dose-only effect; inactive = flat fitted curve, though single readings scatter. Where the call is inconclusive, the potency comes from a doubtful curve fit.
# Biological target: Microtubule-associated protein tau (Homo sapiens) (UniProt P10636)
# Assay: qHTS for Inhibitors of Tau Fibril Formation, Thioflavin T Binding; also: nearly all actives have a fitted effect of over 55% in size
# Settings: recombinant tau K18 P301L (four-repeat tau fragment), heparin-induced fibrillization, ThT fluorescence; series mostly up to 57.4 µM
# Outline: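 K18 P301L tau (15 uM + 0.24 uM Alexa 594-tagged), heparin 20 uM, NaOAc pH 7, 6 h 37 C; ThT 30 uM, 1 h RT, ex 450/em 510 nm.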
# % is scaled to controls: 0 for no effect and ±100 for the full control effect; potency is read from the fitted curve at half-maximal effect; tags tell the direction and shape of the fitted curve.
# Sequence of UniProt P10636 (P10636 whole entry, looked up): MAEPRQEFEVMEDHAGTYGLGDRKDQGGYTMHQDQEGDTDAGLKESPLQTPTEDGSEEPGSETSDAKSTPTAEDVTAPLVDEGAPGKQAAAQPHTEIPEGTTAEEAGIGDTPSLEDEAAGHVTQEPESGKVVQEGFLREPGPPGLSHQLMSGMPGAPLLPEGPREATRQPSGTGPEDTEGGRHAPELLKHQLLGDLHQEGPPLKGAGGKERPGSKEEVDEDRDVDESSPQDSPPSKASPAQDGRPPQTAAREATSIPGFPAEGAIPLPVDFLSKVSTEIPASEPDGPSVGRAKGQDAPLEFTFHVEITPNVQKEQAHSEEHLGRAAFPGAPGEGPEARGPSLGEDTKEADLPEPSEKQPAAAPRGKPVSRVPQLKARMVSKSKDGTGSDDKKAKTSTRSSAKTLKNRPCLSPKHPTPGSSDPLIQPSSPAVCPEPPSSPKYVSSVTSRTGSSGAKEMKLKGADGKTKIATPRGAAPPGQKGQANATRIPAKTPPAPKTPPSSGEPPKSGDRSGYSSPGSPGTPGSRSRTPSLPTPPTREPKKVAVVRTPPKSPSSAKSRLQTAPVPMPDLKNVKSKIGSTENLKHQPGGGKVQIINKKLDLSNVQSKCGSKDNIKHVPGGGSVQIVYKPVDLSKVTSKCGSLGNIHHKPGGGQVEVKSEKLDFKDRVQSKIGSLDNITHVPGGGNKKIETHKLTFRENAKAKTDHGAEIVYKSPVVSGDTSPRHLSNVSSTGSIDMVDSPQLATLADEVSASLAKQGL
SMILES,Potency,"activity, negative = inhibition"
COC(=O)c1c(C)sc(-c2c(-c3ccc(F)cc3)[nH]c3[nH]c(=O)[nH]c(=O)c23)c1O,"inconclusive: 28.2 µM [inhibitor, single point]",
S=C1NC2=C(C(c3ccc(Br)cc3)N1)N1CCC2CC1 (stereo not drawn),inactive,
O=C(Oc1ccc(-c2cnc3ccccc3n2)cc1)c1ccc(Br)o1,"inconclusive: 10 µM [inhibitor, partial curve]",
CCCc1nn2c(=O)cc(COC(=O)c3ccccc3NC(=O)C3CCCCC3)nc2s1,inactive,
O=[N+]([O-])c1ccc(N/N=C/c2ccc(O)c(O)c2O)c(S(=O)(=O)N2CCOCC2)c1,active: 3.98 µM,
COc1ccc(C(=O)NCC(c2cccnc2)N2CCN(c3ccccc3F)CC2)cc1OC (stereo not drawn),inactive,
CC(=O)Oc1ccc(N(C(C)=O)S(=O)(=O)c2cccs2)c2ccccc12,"inconclusive: 31.6 µM [inhibitor, partial curve]",
COc1ccc(/C=C/C(=O)NC(=S)NCCc2ccc(OC)c(OC)c2)cc1,"inconclusive: 3.16 µM [inhibitor, full curve]",
COc1ccc(-c2ccc(-c3cc(=O)oc4cc(C)cc(C)c34)cc2)cc1,"inconclusive: 8.91 µM [inhibitor, full curve]",
COC(=O)C(C(=O)OC)C1O[C@@]23COCCC2(C)C3c2ccccc21 (stereo partly drawn),,inactive: -20.4% [at 11.5 µM]
COc1ccc(-c2c(C)nn3c(C(F)(F)F)cc(C)nc23)cc1OC,"inconclusive: 25.1 µM [inhibitor, partial curve, poor fit]",
CCCOc1cc(C)c(S(=O)(=O)n2ccc(C)n2)cc1C,"inconclusive: 39.8 µM [inhibitor, single point]",
COc1ccc(Cn2c(C(=O)O)c(CNCCc3cccs3)c3ccc(OC)cc32)cc1,"inconclusive: 22.4 µM [inhibitor, single point]",
CNC(=O)/C(C#N)=C/c1cc(C)n(-c2ccc(N3CCOCC3)cc2)c1C,inactive,
COc1cc2c(cc1NC(=O)COc1ccccc1OC)oc1ccccc12,"inconclusive: 1.41 µM [inhibitor, full curve, poor fit]",
COCCCNC(=O)N1CCN(c2nnc(C)c3c(C)n(-c4ccc(Cl)cc4)nc23)CC1,inactive,
Cc1cccc(OCC(=O)Nc2ccc(N3CCN(C(=O)c4ccco4)CC3)cc2)c1C,"inconclusive: 2.24 µM [inhibitor, full curve]",
CCOC(=O)CNC(c1ccccc1)c1cc(Br)ccc1NC(=O)OCC (stereo not drawn),inactive,
CCN1c2ccccc2-c2nc3ccccc3n2C1c1ccco1 (stereo not drawn),"inconclusive: 22.4 µM [inhibitor, partial curve]",
COc1ccc(N=C2NC(=O)/C(=C\C=C\c3ccco3)S2)cc1,active: 8.91 µM,
O=C(N/N=C/C1CC=CCC1)c1cc(Br)ccc1O (stereo not drawn),"inconclusive: 8.91 µM [inhibitor, partial curve]",
O=C(NC1CCCCC1)c1sc(=S)n2c1[nH]c(=O)c1ccccc12,active: 14.1 µM,
CN1CCN(c2ccc(NC(=O)c3ccc4c(c3)[nH]c(=O)n4Cc3ccc(F)cc3)cc2)CC1,"inconclusive: 25.1 µM [inhibitor, single point]",
COc1ccc(/C=C\C(=O)c2c(O)ccc3c(C)cc(=O)oc23)cc1OC,"inconclusive: 5.62 µM [inhibitor, partial curve]",
CCOc1cc(CNCCc2c[nH]c3ccccc23)cc(Cl)c1OCC(N)=O,"inconclusive: 0.199 µM [inhibitor, full curve, poor fit]",
COc1ccc(-c2nn(-c3ccccc3)cc2/C=N/Nc2ccc(Cl)c(C(=O)O)c2)cc1OC,"inconclusive: 35.5 µM [inhibitor, single point]",
COc1ccc(C2c3c(-c4cc(Cl)c(C)cc4O)n[nH]c3C(=O)N2Cc2cccnc2)cc1OC (stereo not drawn),"inconclusive: 12.6 µM [inhibitor, partial curve]",

SMILES,Potency,"activity, negative = inhibition"
CC(=O)c1ccc(NC(=S)N2CCN(C(=S)Nc3ccc(C(C)=O)cc3)C(C)C2)cc1 (stereo not drawn),"inconclusive: 6.31 µM [inhibitor, partial curve]",
CCn1c(=N)n(CC(=O)c2ccc(OC)cc2)c2ccccc21,"inconclusive: 25.1 µM [inhibitor, partial curve]",
C=CCn1c(-c2cc(-c3ccccc3)sc2N)n[nH]c1=S,"inconclusive: 7.08 µM [inhibitor, partial curve]",
CCN(c1ccccc1)S(=O)(=O)c1nnc(NC(=O)C(C)Oc2ccccc2)s1 (stereo not drawn),"inconclusive: 11.2 µM [inhibitor, partial curve]",
COc1ccc(CCN2C(=O)c3cccc4c(C(=O)N5CCCCC5)ccc(c34)C2=O)cc1OC,"inconclusive: 10 µM [inhibitor, partial curve]",
O=C1CN(C(=O)c2ccc(S(=O)(=O)N3CCCC3)cc2)C(c2ccc(F)cc2)c2cc(F)ccc2N1 (stereo not drawn),inactive,
COc1ccccc1N(Cc1ccccc1)S(=O)(=O)c1cccc(C(=O)Nc2ccc(C(C)=O)cc2)c1,"inconclusive: 28.2 µM [inhibitor, single point]",
Cc1c(C#N)c(O)n(CCO)c(=O)c1N=Nc1ccccc1,active: 12.6 µM,
COc1ccc(Nc2ccccc2N)cc1,"inconclusive: 12.6 µM [inhibitor, partial curve]",
COc1cc(C(=O)Nc2ccc(N(C)C)cc2)cc(OC)c1OC,active: 15.8 µM,
O=C1c2oc3ccccc3c(=O)c2C(c2cccc(O)c2)N1Cc1ccc(F)cc1 (stereo not drawn),inactive,
COc1ccc(/C=C2\CCCC(C(=O)C(F)(F)F)=C2O)cc1OC,active: 15.8 µM,
COC(=O)c1ccc(-c2nc3cc(Cl)c(N)cc3s2)cc1,"inconclusive: 1.58 µM [inhibitor, full curve]",
Cc1cccc(S(=O)(=O)Nc2ccc(C)c3c2OC(C)(C)C3)c1,inactive,
C#CCOCCOCCOCCNc1nc(N2CCN(C(=O)C(Cc3cc4ccccc4[nH]3)n3cc(C(N)C(C)CC)nn3)CC2)nc(N2CCN(C(=O)C(Cc3cc4ccccc4[nH]3)n3cc(C(N)C(C)CC)nn3)CC2)n1 (stereo not drawn),"inconclusive: 5.01 µM [inhibitor, single point]",
CCOc1ccccc1NC(=O)c1cc2ccc3cccnc3c2[nH]1,"inconclusive: 0.708 µM [inhibitor, partial curve, poor fit]",
CCN(Cc1ccccc1)C(=O)c1cc2ccc3cccnc3c2[nH]1,"inconclusive: 20 µM [inhibitor, partial curve]",
NNC(=O)c1nn(-c2ccc(Cl)cc2)cc1O,"inconclusive: 6.31 µM [inhibitor, partial curve]",
CCOc1ccc(C(=O)Nc2cc(-c3ccccc3)no2)cc1,"inconclusive: 0.0794 µM [inhibitor, full curve]",
CN1/C(=C\C(=O)COc2ccc3c(c2)OCO3)C(C)(C)c2ccccc21,"inconclusive: 31.6 µM [inhibitor, partial curve]",
O=C(/C=C/c1ccccc1[N+](=O)[O-])c1ccc(F)cc1,"inconclusive: 7.94 µM [inhibitor, partial curve]",
O=S(=O)(c1ccc(NC(=S)N/N=C/c2cccc(Oc3ccccc3)c2)cc1)N1CCOCC1,inactive,
CCOc1ccc(CCNC(=O)c2ccc(C)c(-n3c(C)nc4cccnc43)c2)cc1OCC,inactive,
Cc1ccc(S(=O)(=O)Nc2ccc(=O)n(Cc3ccc(Cl)c(Cl)c3)c2)cc1,"inconclusive: 17.8 µM [inhibitor, partial curve]",
CCC1(C)Cc2c(sc3[nH]c(=O)[nH]c(=O)c23)CS1 (stereo not drawn),"inconclusive: 17.8 µM [inhibitor, partial curve]",
CCN1/C(=C2\OC(=S)N(C)C2=O)C=Cc2ccccc21,"inconclusive: 3.16 µM [inhibitor, full curve]",
